# Laboratory results from article PMC4336329 (PLoS ONE, 2015).
# Out of some 310,000 compounds screened, about 14,000 (4.5%) showed an effect of 50% or more. Effects have a minus sign here. This is one part of the list.
# Target: human ether-à-go-go-related gene (hERG) potassium channel (human, UniProt Q12809)
# Experiment: primary screen, population patch clamp on CHO cells stably expressing hERG
# 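Also: peak tail current of the secondary pulse compared with the same well before compound.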
# Chain of human ether-à-go-go-related gene (hERG) potassium channel (Q12809 whole entry, looked up): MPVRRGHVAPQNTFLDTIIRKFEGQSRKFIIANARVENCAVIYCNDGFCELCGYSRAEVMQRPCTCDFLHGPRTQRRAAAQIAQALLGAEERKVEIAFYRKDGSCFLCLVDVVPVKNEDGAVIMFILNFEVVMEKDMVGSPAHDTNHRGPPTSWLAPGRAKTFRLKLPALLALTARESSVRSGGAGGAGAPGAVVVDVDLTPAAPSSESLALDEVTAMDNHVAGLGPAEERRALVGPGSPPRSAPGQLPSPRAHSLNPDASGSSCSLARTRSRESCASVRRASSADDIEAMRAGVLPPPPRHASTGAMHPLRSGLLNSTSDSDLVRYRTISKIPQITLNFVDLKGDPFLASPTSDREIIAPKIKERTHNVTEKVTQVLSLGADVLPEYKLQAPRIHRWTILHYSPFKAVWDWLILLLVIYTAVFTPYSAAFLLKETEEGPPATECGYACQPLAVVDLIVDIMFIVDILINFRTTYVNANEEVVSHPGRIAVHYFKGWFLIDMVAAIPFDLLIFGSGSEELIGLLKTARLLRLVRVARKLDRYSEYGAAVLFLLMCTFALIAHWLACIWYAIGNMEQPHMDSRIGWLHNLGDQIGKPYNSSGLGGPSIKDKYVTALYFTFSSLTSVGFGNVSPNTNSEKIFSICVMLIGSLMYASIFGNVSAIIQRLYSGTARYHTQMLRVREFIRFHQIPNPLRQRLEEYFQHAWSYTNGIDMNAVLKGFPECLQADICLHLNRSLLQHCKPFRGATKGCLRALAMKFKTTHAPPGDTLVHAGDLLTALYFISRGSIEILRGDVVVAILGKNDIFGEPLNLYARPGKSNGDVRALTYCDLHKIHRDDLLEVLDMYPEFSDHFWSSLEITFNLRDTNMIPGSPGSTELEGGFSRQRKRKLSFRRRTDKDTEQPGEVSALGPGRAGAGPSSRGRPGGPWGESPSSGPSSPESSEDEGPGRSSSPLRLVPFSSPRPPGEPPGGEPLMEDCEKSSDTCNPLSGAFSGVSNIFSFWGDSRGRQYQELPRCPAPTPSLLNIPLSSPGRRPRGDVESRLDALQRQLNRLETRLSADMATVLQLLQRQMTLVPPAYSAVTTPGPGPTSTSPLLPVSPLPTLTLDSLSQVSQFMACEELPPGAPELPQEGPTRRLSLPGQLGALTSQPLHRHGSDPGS
row,Compound,"hERG current change (%, negative = inhibition) at 10uM"
1,Cc1ccc(C(=O)NCc2nnc(SCC(=O)NC(C)c3ccccc3)n2C)cc1 (stereo not drawn),11.8%
2,CCSc1nc2c(c(=O)[nH]1)C(c1cccnc1)C(C(=O)OC)=C(C)N2 (stereo not drawn),7.31%
3,CCN(CCCNC(=O)COc1cc(=O)n(CC)c2ccccc12)c1ccccc1,-52.5%
4,COc1ccc(C2C(C(=O)c3ccc(C)o3)=C(O)C(=O)N2Cc2cccnc2)cc1OC (stereo not drawn),16.8%
5,COc1ccccc1NC(=O)CN(Cc1ccco1)C(=O)c1cccs1,-4.4%
6,COc1ccc(C(=O)CN2C(=O)NC3(CCCc4ccccc43)C2=O)cc1OC (stereo not drawn),-19%
7,O=C(CSCc1ccccc1)Nc1cccc(C(=O)Nc2ccc(C(=O)O)cc2)c1,4.84%
8,CC(C)n1nnnc1-c1cccc(Cl)c1,2.2%
9,Cc1ccc(S(=O)(=O)NCCC(=O)NC2CCCCC2C)cc1 (stereo not drawn),3.4%
10,CCCCn1c(=O)c(C(=O)Nc2ccccc2S(N)(=O)=O)c(O)c2ccccc21,-12.3%
11,Cc1cccc(-c2c3c(=O)n(C)c(=O)n(C)c3cn2-c2ccccc2O)c1,1.06%
12,Cc1ccc2c(c1)N(CC(=O)NC1CCCC1)C(=O)C(C)O2 (stereo not drawn),-3.85%
13,O=C(Oc1ccc(C(=S)N2CCOCC2)cc1Br)c1cc(Cl)ccc1Cl,14.1%
14,Cc1cccc(NC(=S)N(CCN2CCOCC2)Cc2cc3cc4c(cc3[nH]c2=O)OCCO4)c1,-3.3%
15,O=C(Nc1ccccc1NS(=O)(=O)c1ccc(F)cc1)C1CCCC1,4.36%
16,CCNC(=S)NNc1nc(N2CCCCC2)nc(N2CCOCC2)n1,12.6%
17,COc1cc(NC(=S)N2CCCC2)cc(OC)c1,16.2%
18,CCCCn1c(CCC(=O)O)nc2cc(S(=O)(=O)N(CC)CC)ccc21,4.24%
19,O=C(CSc1n[nH]c(-c2ccccc2Cl)n1)NCc1cccc(C(=O)O)c1,18.2%
20,Cc1cccc(-n2c(SCC(=O)N3CC(=O)Nc4ccccc43)nc3ccccc3c2=O)c1C,-8.02%
21,CC(C(=O)Nc1ccc2c(c1)OCCO2)N1CCN(C(=O)c2ccco2)CC1 (stereo not drawn),-4.62%
22,Cc1ccc(C)c(NC2=NS(=O)(=O)c3ccccc32)c1,-3.23%

row,Compound,"hERG current change (%, negative = inhibition) at 10uM"
1,N#Cc1c(N)n(Cc2ccccc2)c(=O)c2cc([N+](=O)[O-])ccc12,9.84%
2,CCCCNC(=O)CSc1nc2ccc(Nc3nc(N4CCOCC4)nc(N4CCOCC4)n3)cc2s1,-6.04%
3,Cc1cc(Cl)ccc1Oc1cccc(C(=O)/C(C#N)=C/N(C)C)c1,-13.9%
4,COc1ccc(C(=O)NC(C(=O)N2CCN(c3ccccc3O)CC2)C(C)C)cc1 (stereo not drawn),7.18%
5,Cc1ccc(C(=O)N2CC(=O)Nc3ccc(F)cc3C2c2ccc(F)cc2)cc1 (stereo not drawn),-20.4%
6,Cc1cccc(Cc2nnc(CCC(=O)N(C)Cc3ccncc3C)o2)c1,-3.01%
7,CCN(CC)CCCNc1cc(C)nc2cc(-c3cccs3)nn12,-35.3%
8,CCOC(=O)CNC(=O)CSc1nnc(CCc2nc3ccccc3[nH]2)n1C,17.2%
9,CN(C(=O)c1ccc(Br)o1)C1CCS(=O)(=O)C1 (stereo not drawn),24.4%
10,O=[N+]([O-])c1ccccc1/C=C/C=N/n1c(-c2cc(-c3ccccc3)n[nH]2)n[nH]c1=S,8.59%
11,CCN1CCN(C(=O)Cn2nc(C)c3sc4ccccc4c3c2=O)CC1,-3.06%
12,COC(=O)C1=C(C)NC(=S)NC1c1ccc(-c2cc(Cl)ccc2Cl)o1 (stereo not drawn),-19.2%
13,CC(C)c1ccc(NC2CCCN(C(=O)CCc3cn[nH]c3)C2)cc1 (stereo not drawn),0.18%
14,O=C(COc1ccc(Cl)cc1)N(Cc1ccccc1)c1nc(-c2ccccc2)cs1,2.46%
15,Cc1cc(C)n2c(Nc3ccc4c(c3)OCCO4)c(-c3ccccc3)nc2n1,-16.7%
16,O=C1C2CC=CCC2C(=O)N1Cc1nnc(-c2ccccc2Br)o1 (stereo not drawn),-4.97%
17,N#CC1=C(N)Oc2n[nH]c(-c3cccnc3)c2C1c1cc(F)ccc1F (stereo not drawn),11.2%
18,COc1cc(NC(=S)NCCCO)c(OC)cc1Cl,20.2%
19,Cl.O=C(Nc1ccccc1)N1CCNCC1,14%
20,COc1cccc(Oc2cc(NN3CCCCC3)c([N+](=O)[O-])cc2[N+](=O)[O-])c1OC,7.27%
21,Cc1c(Cc2ccccc2)c(=O)oc2c(C)c(OCC(=O)Nc3ccc(C#N)cc3)ccc12,1.64%
22,COc1ccc(CCNCC(=O)Nc2ccc(C(=O)N3CCCCC3)cc2)cc1.O=C(O)C(=O)O,4.75%

row,Compound,"hERG current change (%, negative = inhibition) at 10uM"
1,CCn1nc(NS(=O)(=O)c2ccccc2)c2cc3cc(C)ccc3nc21,3.38%
2,O=C(COC(=O)c1ccccc1F)Nc1cccnc1Cl,-2.16%
3,COc1cccc(NC(=S)N2CCN(c3ccccn3)CC2)c1,6.36%
4,Cc1nc(-c2ccc(NC(=O)c3cccs3)cc2)cs1,-1.97%
5,O=C(Cn1ccc2cc(S(=O)(=O)N3CCCCC3)ccc21)NCc1ccccc1F,-3.7%
6,COc1ccc(C(=O)Nc2ccc(Cl)cc2F)cc1S(=O)(=O)N1CCCC1,-48.1%
7,CCN(CC)CC(=O)Nc1ccc(-c2nc3cc(NC(=O)CN(CC)CC)ccc3o2)cc1,-18.1%
8,O=C(CN1CCCC1)Nc1ccccc1C(=O)c1ccccc1,-2.59%
9,CCOC(=O)C1=C(C)N(C)C(=O)C1CC(=O)O (stereo not drawn),19.4%
10,Cc1ccc(NC(=O)CSc2nnc(NC(=O)C(C)C)s2)c(C)c1,5.81%
11,N#Cc1ccccc1Oc1ccccc1C=O,-16.8%
12,CCC(C)c1ccc(NC(=O)C2=CC=CN3CCS(=O)(=O)N=C23)cc1 (stereo not drawn),-9.25%
13,Cc1ccc(/C=N\NC(=O)C2COc3cc4ccccc4cc3O2)o1 (stereo not drawn),-5.12%
14,NC1=NC(c2cccc(O)c2)n2c(nc3ccccc32)N1 (stereo not drawn),9.75%
15,Cc1noc(C)c1S(=O)(=O)N(C)Cc1ccccc1,20.5%
16,COC(=O)C1=C(c2cccc(OCc3ccccc3)c2)C[C@@H]2CC[C@H]1N2C(=O)NCCOc1ccccc1Cl,5.83%
17,O=C1C2C3C=CC(C3)C2C(=O)N1CC1CCCO1 (stereo not drawn),21.7%
18,CCC(=O)Nc1nc(C)c(C(=O)N2CCCCC2)s1,12.4%
19,O=C(Nc1ccccc1)Nn1cnnc1,19.5%
20,O=C(Nc1ccccc1)OCCOc1ccc(Br)cc1,30.3%
21,O=C(N/N=C/c1cc([N+](=O)[O-])cc(Br)c1O)C12CC3CCC(CC(C3)C1)C2,2.01%
22,CO/N=C/c1ccc(OC)c(Oc2nc(OC)cc(OC)n2)c1,9.21%

row,Compound,"hERG current change (%, negative = inhibition) at 10uM"
1,COc1ccccc1-c1nc(-c2ccncc2)no1,4.28%
2,Cc1cc(=O)c(C(=O)Nc2cccc(N3CCCC3=O)c2)nn1-c1ccccc1F,-16.8%
3,O=c1[nH]cnc2c1sc(=S)n2-c1ccccc1,1%
4,CN(C(=S)NCCN1CCOCC1)C(c1ccccc1)c1ccccc1,-36.5%
5,CCCCNC(=S)NNC(=O)c1csc(C)c1CC,23.8%
6,COc1ccc(NC(=O)c2cccn(CC=C(C)C)c2=O)cc1,-4.72%
7,O=C(CO/N=C/c1ccccc1)Nc1c(F)c(F)c(F)c(F)c1F,-9.64%
8,COc1cccc(NC(=S)N2CCN(C(c3ccccc3)c3ccccc3)CC2)c1,-3.08%
9,CCOc1ccc(S(=O)(=O)N(CC(=O)NCc2cccnc2)c2ccc(F)cc2)cc1,-72.5%
10,Cn1c(N)c(C(=O)COC(=O)c2cncc(Br)c2)c(=O)n(C)c1=O,-10.2%
11,CCOC(=O)C1=C(C)NC2=C(C(=O)OC2)C1c1ccccc1 (stereo not drawn),3.65%
12,O=C(N/N=C/c1ccc(Br)cc1)c1ccc(Br)o1,5.79%
13,CCOC(=O)N=S(N)(=O)c1ccc(Cl)cc1 (stereo not drawn),7.53%
14,Cc1cccn2c(=O)c(C=O)c(N3CCN(c4ccc(F)cc4)CC3)nc12,-22.1%
15,Cc1ccc(C(NC(=O)C2CCCCC2)c2c(O)ccc3ccccc23)cc1 (stereo not drawn),-4.41%
16,O=C1[C@H]2[C@H](C=CC[C@H]2C(=O)N2CCN(c3ccccc3)CC2)CCN1Cc1ccc(Cl)c(Cl)c1,-32.5%
17,CC(=O)c1cccc(NC(=O)CN2C(=O)c3cccnc3Oc3ccc(Cl)cc32)c1,3.6%
18,Cc1cc(=O)oc(C)c1C(=O)OCC(=O)c1ccc(Br)cc1,-10.3%
19,Br.CCN(CC)S(=O)(=O)c1cccc(-c2nc3n(n2)Cc2ccccc2-3)c1,-18.7%
20,C=CCOc1c(Br)cc(CNc2ccc(NC(=O)CCC)cc2)cc1OCC,5.43%
21,COc1ccc(CN2CCN(C(=O)c3cc(OC)c(OC)c(OC)c3)CC2)cc1OC,10.4%
